Experimental data reported in patent US12692294B2, “Engineered NRG-1 variants with improved selectivity toward ErbB4 but not against ErbB3” (Amgen Inc., priority 2021, dated 2026).
Where a chain is given by its changes, count along the chain named. Names and notes keep the numbering of the source. Values joined by “and” are separate entries in the source; they are usually repeats but may differ in a detail not shown here. Equal entries are not always repeated.

B1: huNRG1(S177-Q237)(v80)::GG::huFcSEFL2 (Pb): Fc fusion of NRG1 variant SEQ ID NO:175 (protein)
chain: SHLVKCAESHKSFCVNGGECFVIEGSSIPSRYLCKCPNEFTGDRCQKDVMASFYKAEELYQGG[letters of human IgG1 Fc with R292C N297G V302C (EU numbers) not shown]
modifications: huNRG1(S177-Q237)(v80)::GG::huFcSEFL2 (Pb)
B2: huNRG1(S177-Q237)(v80.3)::GG::huFcSEFL2 (Pb): Fc fusion of NRG1 variant SEQ ID NO:176 (protein)
chain: B1 chain with S9R, Q46E
modifications: huNRG1(S177-Q237)(v80.3)::GG::huFcSEFL2 (Pb)
B3: huNRG1(S177-F229)(NRGE1C)(G4E)::G4S::G4::huFcSEFL2 (Pb): Fc fusion of NRG1 variant SEQ ID NO:117 (protein)
chain: SHLVKCGEKHKSFCVNGGECFMIEGPSNPSRYLCKCPNEFTGDRCQEDFMASFGGGGEGGGGSGGGG[letters of human IgG1 Fc with R292C N297G V302C (EU numbers) not shown]
modifications: huNRG1(S177-F229)(NRGE1C) (G4E)::G4S::G4::huFcSEFL2 (Pb)
B4: huNRG1(S177-F229)(NRGE1C)(NRGmod)::G4::huFcSEFL2 (Pb): Fc fusion of NRG1 variant SEQ ID NO:117 (protein)
chain: SHLVKCGEKHKSFCVNGGECFMIEGPSNPSRYLCKCPNEFTGDRCQEDFMASFAAAEELYQGGGG[letters of human IgG1 Fc with R292C N297G V302C (EU numbers) not shown]
modifications: huNRG1(S177-F229)(NRGE1C) (NRGmod)::G4::huFcSEFL2 (Pb)
B5: huNRG1(S177-F229)(NRGE1D)::3x(G4Q)::huFcSEFL2 (Pb): Fc fusion of NRG1 variant SEQ ID NO:126 (protein)
chain: SHLVKCGESHKSFCVNGGECYMVEGSSIPSRYLCKCPNEFTGDRCQEDFMASFGGGGQGGGGQGGGGQ[letters of human IgG1 Fc with changes not shown]
modifications: huNRG1(S177-F229) (NRGE1D)::1KmodT482V,M493L)::huFcSEFL2 (Pb)
B6: huNRG1(S177-F229)(NRGE1D)::1KmodT482V, M493L)::huFcSEFL2 (Pb): Fc fusion of NRG1 variant SEQ ID NO:126 (protein)
chain: SHLVKCGESHKSFCVNGGECYMVEGSSIPSRYLCKCPNEFTGDRCQEDFMASFGSGSATGGSGSVASSGSGSATHL[letters of human IgG1 Fc with R292C N297G V302C (EU numbers) not shown]
modifications: huNRG1(S177-F229) (NRGE1D)::1KmodT482V,M493L)::huFcSEFL2 (Pb)
B7: huNRG1(S177-F229)(NRGE1D)::(G4A)2:G4::huFcSEFL2 (Pb): Fc fusion of NRG1 variant SEQ ID NO:126 (protein)
chain: B3 chain with K9S, F21Y, I23V, P26S, N28I, E58A, S63A
modifications: huNRG1(S177-F229)(NRGE1D)::(G4A)2G4::huFcSEFL2 (Pb)
B8: huNRG1(S177-F229)(NRGE1D)::(G4S)2::G4::huFcSEFL2 (Pb): Fc fusion of NRG1 variant SEQ ID NO:126 (protein)
chain: B3 chain with K9S, F21Y, I23V, P26S, N28I, E58S
modifications: huNRG1(S177-F229)(NRGE1D) (G4E)::G4S::G4::huFcSEFL2 (Pb)
B9: huNRG1(S177-F229)(NRGE1D)(G4E)::G4S::G4::huFcSEFL2 (Pb): Fc fusion of NRG1 variant SEQ ID NO:126 (protein)
chain: B3 chain with K9S, F21Y, I23V, P26S, N28I
modifications: huNRG1(S177-F229)(NRGE1D) (NRGmod)::G4::huFcSEFL2 (Pb)
B10: huNRG1(S177-F229)(NRGE1D)(NRGmod)::G4::huFcSEFL2 (Pb): Fc fusion of NRG1 variant SEQ ID NO:126 (protein)
chain: B4 chain with K9S, F21Y, I23V, P26S, N28I
modifications: huNRG1(S177-F229)(NRGE1D) (NRGmod)::G4::huFcSEFL2 (Pb)
B11: huNRG1(S177-Q237)(3H8)::3xG4S::huFcSEFL2 (Pb): Fc fusion of NRG1 variant SEQ ID NO:171 (protein)
chain: SHLVKCGEKHKSFCVNGGECYMVEGSSIPSRYLCKCPNEFTGDRCQEDFMASFYKAEELYQGGGGSGGGGSGGGGS[letters of human IgG1 Fc with R292C N297G V302C (EU numbers) not shown]
modifications: huNRG1(S177-Q237)(3H8)::3xG4S::huFcSEFL2 (Pb)
B12: huNRG1(S177-F229)(3H8)::3x(G4Q)::huFcSEFL2 (Pb): Fc fusion of NRG1 variant SEQ ID NO:170 (protein)
chain: SHLVKCGEKHKSFCVNGGECYMVEGSSIPSRYLCKCPNEFTGDRCQEDFMASFGGGGQGGGGQGGGGQ[letters of human IgG1 Fc with changes not shown]
modifications: huNRG1(S177-Q237)(3H8)::3x(G4Q)::huFcSEFL2 (Pb)
B13: huNRG1(S177-Q237)(3H8)::3x(G4Q)::huFcSEFL2 (Pb): Fc fusion of NRG1 variant SEQ ID NO:171 (protein)
chain: SHLVKCGEKHKSFCVNGGECYMVEGSSIPSRYLCKCPNEFTGDRCQEDFMASFYKAEELYQGGGGQGGGGQGGGGQ[letters of human IgG1 Fc with changes not shown]
modifications: huNRG1(S177-Q237)(3H8)::3x(G4Q)::huFcSEFL2 (Pb)
B14: huNRG1(S177-S228)(3H8)::3x(G4Q)::huFcSEFL2 (Pb): Fc fusion of NRG1 variant SEQ ID NO:169 (protein)
chain: SHLVKCGEKHKSFCVNGGECYMVEGSSIPSRYLCKCPNEFTGDRCQEDFMASGGGGQGGGGQGGGGQ[letters of human IgG1 Fc with changes not shown]
modifications: huNRG1(S177-S228)(3H8)::3x(G4Q)::huFcSEFL2 (Pb)

molecular target: T1, ErbB4 (Rattus norvegicus, UniProt Q62956); test: In vitro phosphorylation of Akt in neonatal rat cardiomyocytes; type: cell-based; settings: Akt (Serine 473) phosphorylation, neonatal rat cardiomyocytes, 15 minutes treatment; read-out: Cardiomyocyte (CM) (ErbB4) Avg EC50
T1 construct: forming the ErbB2/ErbB4 complex in cardiomyocytes and the ErbB2/ErbB3 complex in Schwann cells; endogenous in cells; host or cells: primary neonatal rat cardiomyocytes (Sprague Dawley pups, 0 to 4 days old)
Protocol: (§1) In Vitro Phosphorylation of Akt in Neonatal Rat Cardiomyocytes and Rat Schwann Cells by Neuregulin Variants
(§2) Specificity of neuregulin variants towards cardiomyocytes (ErbB4) versus Schwann cells (ErbB3) was tested by measuring Akt activity generated by formation of the ErbB2/ErbB4 and ErbB2/ErbB3 complexes. Upon activation by neuregulin, the ErbB4 and ErbB3 receptors dimerize preferentially with the ErbB2 co-receptor, forming the ErbB2/ErbB4 complex in cardiomyocytes and the ErbB2/ErbB3 complex in Schwann cells, both of which signal through the Akt pathway. Neonatal rat cardiomyocytes were isolated from hearts of Sprague Dawley rat pups at 0 to 4 days old according to manufacturer's protocol using the Neomyt kit and plated on Surecoat plates in NS media containing serum (all from Cellultron Life Technologies, Baltimore, MD). Rat Schwann cells were plated in Poly-D-Lysine coated plates with Dulbecco's modified Eagle's media (DMEM) supplemented with fetal bovine serum (Thermo Fisher) and forskolin (Millipore Sigma).
(§3) After a 24-hour incubation in a humidified incubator maintained at 37° C. and 5% CO2, cardiomyocytes and Schwann cells were washed with serum free media and incubated an additional 16 hours in DMEM supplemented with bovine serum albumin (Sigma). Both cell lines were then treated with titrations of the neuregulin variant molecules for 15 minutes, upon which cells were lysed in lysis buffer (Meso Scale Discovery (MSD)). For detection of Akt phosphorylation, lysates were added to the Multi-Spot 96-Well 4-Spot Phospho (Serine 473)/Total Akt plates (MSD), incubated according to the manufacturer's protocol and read in the SECTOR Imager 6000 (MSD). For both cell assays, the percent phosphorylation of Akt was calculated by multiplying the phospho Akt signal by 2, then dividing by the phospho Akt signal added to the total Akt signal and then multiplying by 100. The phosphorylation of Akt data points were fitted using a log (agonist) versus response, variable slope (4 parameters) analysis in GraphPad Prism to generate EC50 curves. The CM % agonism reflect the top value of the data points.

T1 sequence (Q62956 26-1308): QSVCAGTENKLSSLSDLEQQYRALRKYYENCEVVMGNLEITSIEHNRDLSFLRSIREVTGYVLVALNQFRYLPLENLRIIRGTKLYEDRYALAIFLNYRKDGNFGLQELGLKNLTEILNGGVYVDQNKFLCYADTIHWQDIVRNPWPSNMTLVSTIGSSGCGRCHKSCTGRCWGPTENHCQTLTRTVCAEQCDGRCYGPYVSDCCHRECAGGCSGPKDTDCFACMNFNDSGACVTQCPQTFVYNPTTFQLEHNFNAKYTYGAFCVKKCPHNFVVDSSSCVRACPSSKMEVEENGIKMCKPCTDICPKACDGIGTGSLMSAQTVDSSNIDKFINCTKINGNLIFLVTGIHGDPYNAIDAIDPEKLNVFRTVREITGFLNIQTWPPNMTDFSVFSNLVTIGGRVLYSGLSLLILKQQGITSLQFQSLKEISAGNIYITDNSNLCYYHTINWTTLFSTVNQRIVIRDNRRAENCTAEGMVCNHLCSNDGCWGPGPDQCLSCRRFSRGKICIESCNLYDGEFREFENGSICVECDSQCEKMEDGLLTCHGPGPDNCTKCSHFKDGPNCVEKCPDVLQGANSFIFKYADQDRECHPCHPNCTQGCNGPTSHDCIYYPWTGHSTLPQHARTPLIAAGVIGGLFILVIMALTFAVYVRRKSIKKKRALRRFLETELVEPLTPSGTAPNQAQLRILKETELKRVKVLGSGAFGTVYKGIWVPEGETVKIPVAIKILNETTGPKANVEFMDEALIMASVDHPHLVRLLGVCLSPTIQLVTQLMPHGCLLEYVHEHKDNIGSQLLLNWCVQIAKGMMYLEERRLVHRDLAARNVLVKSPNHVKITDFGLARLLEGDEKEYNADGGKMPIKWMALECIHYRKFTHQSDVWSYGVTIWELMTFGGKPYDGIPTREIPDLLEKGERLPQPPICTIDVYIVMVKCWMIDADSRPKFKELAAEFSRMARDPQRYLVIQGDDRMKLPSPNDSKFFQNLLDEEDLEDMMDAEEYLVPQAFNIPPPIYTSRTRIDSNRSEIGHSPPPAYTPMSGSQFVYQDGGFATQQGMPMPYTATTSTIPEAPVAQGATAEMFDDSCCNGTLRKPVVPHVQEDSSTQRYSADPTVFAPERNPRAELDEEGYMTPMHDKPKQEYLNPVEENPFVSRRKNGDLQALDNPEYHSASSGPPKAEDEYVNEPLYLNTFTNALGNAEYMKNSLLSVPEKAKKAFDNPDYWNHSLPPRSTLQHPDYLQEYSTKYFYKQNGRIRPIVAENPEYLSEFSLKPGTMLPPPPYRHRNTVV
T1 sequence (P06494 23-1257 partner): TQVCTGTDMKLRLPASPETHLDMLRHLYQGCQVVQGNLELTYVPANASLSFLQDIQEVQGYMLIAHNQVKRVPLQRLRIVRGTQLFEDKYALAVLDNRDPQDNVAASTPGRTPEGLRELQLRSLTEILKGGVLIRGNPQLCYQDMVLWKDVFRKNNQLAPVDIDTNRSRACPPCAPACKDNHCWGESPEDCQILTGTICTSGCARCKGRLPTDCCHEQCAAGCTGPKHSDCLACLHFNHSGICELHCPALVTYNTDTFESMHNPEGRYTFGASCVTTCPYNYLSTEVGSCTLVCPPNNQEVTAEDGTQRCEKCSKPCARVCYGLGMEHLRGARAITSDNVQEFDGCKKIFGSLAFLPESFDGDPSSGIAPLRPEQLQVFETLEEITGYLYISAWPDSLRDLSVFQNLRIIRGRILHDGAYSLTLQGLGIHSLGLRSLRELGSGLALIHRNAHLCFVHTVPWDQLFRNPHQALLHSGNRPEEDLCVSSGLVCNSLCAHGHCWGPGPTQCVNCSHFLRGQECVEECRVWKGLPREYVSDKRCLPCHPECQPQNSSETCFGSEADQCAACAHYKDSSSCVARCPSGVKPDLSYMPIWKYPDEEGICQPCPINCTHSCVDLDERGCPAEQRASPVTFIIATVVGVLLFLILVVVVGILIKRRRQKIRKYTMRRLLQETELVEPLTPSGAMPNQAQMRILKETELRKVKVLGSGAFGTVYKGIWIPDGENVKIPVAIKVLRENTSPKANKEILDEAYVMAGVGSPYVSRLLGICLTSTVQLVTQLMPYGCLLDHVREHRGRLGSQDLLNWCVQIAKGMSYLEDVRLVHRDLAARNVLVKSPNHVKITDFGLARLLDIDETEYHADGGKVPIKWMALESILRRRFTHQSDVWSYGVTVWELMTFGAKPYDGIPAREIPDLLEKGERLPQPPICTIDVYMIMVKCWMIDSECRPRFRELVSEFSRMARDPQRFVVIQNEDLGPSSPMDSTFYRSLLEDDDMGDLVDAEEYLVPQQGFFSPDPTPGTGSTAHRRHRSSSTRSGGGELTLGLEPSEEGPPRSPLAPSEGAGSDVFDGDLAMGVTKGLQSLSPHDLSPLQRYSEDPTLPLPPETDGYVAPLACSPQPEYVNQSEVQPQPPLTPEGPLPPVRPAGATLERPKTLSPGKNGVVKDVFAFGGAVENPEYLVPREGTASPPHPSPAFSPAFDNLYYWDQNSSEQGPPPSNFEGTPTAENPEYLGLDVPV

Row | Molecule | EC50
1 | B1 | 0.998 nM
2 | B2 | 33.6 nM
3 | B3 | 0.42 nM
4 | B4 | 0.87 nM
5 | B5 | 0.29 nM and 0.3 nM
6 | B6 | 0.34 nM
7 | B7 | 0.32 nM
8 | B8 | 0.46 nM
9 | B9 | 0.35 nM
10 | B10 | 0.54 nM
11 | B11 | 0.2 nM
12 | B12 | 0.28 nM
13 | B13 | 0.24 nM
14 | B14 | 43.5 nM

same assay, conditions: ratio of EC50s Schwann cells/cardiomyocytes

Row | Molecule | Selectivity SC/CM
15 | B1 | 7
16 | B2 | 89
17 | B3 | >10000
18 | B4 | >10000
19 | B5 | 1401 and 1491
20 | B6 | >10000
21 | B7 | >10000
22 | B8 | >10000
23 | B9 | >10000
24 | B10 | >10000
25 | B11 | >10000
26 | B12 | 527
27 | B13 | 414
28 | B14 | 0.6

same assay, conditions: top value of the Akt phosphorylation data points in cardiomyocytes; wild-type control 100

Row | Molecule | CM % Agonism AVG
29 | B1 | Full
30 | B2 | Full
31 | B3 | 82.2%
32 | B4 | 75.5%
33 | B5 | 74.4%
34 | B6 | 83.4%
35 | B7 | 78.8%
36 | B8 | 80.5%
37 | B9 | 85%
38 | B10 | 74.9%

molecular target: T2, ErbB3 (Rattus norvegicus, UniProt Q62799); test: In vitro phosphorylation of Akt in rat Schwann cells; type: cell-based; settings: Akt (Serine 473) phosphorylation, 15 minutes treatment, read-out: Schwann cells (SC) (ErbB3) Avg EC50
T2 construct: forming the ErbB2/ErbB4 complex in cardiomyocytes and the ErbB2/ErbB3 complex in Schwann cells; endogenous in cells; host or cells: rat Schwann cells
Protocol: as §1, §2, §3

T2 sequence (Q62799 20-1339): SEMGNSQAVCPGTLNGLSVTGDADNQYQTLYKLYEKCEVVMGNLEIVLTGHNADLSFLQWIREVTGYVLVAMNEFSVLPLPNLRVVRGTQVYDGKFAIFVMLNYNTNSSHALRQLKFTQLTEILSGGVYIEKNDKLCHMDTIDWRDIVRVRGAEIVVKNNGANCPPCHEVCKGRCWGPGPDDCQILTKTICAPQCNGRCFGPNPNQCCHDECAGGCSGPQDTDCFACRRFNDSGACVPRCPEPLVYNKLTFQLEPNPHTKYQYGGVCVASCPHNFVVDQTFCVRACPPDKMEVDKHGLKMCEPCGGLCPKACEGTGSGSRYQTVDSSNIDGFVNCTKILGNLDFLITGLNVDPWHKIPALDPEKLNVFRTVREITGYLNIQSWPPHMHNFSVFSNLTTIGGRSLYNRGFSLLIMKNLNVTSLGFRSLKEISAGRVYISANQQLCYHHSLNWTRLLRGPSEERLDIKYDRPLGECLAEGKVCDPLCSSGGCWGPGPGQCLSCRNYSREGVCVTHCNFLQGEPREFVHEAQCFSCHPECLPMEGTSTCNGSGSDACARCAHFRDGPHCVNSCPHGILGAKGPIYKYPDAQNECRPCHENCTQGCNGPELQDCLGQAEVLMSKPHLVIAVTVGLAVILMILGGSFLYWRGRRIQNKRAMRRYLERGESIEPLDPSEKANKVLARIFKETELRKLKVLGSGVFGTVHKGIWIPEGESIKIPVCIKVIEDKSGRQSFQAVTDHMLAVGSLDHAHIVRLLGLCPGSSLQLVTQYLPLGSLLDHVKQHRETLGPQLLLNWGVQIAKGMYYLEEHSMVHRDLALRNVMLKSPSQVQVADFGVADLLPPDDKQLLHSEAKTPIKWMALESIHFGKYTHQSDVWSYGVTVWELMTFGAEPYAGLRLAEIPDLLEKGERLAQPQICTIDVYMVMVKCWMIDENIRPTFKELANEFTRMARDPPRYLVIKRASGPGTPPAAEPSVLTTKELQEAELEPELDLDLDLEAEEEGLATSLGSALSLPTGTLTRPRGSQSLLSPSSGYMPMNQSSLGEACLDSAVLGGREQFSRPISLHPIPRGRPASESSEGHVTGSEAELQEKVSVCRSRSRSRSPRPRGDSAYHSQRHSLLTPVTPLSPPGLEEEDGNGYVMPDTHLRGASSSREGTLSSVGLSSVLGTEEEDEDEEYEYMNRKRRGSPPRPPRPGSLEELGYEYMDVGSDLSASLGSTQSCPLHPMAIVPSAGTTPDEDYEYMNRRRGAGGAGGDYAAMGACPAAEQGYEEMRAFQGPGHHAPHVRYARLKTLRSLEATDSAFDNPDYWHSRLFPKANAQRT
T2 sequence (P06494 23-1257 partner): as the sequence (P06494 23-1257 partner) above

Row | Molecule | EC50
39 | B1 | 6.65 nM
40 | B2 | 3000 nM
41 | B3 | > 10000 nM
42 | B4 | > 10000 nM
43 | B5 | 410 nM and 446 nM
44 | B6 | > 10000 nM
45 | B7 | > 10000 nM
46 | B8 | > 10000 nM
47 | B9 | > 10000 nM
48 | B10 | > 10000 nM
49 | B11 | > 10000 nM
50 | B12 | 149 nM
51 | B13 | 100 nM
52 | B14 | 27.7 nM
